In paper PMC4336329 (PLoS ONE, 2015):
The campaign covered roughly 310,000 compounds. About 2,200 (0.71%) showed an effect of 50% or more. Effects have a minus sign here. Some of the results follow.

Target: human ether-à-go-go-related gene (hERG) potassium channel (human, UniProt Q12809)
Experiment: primary screen, population patch clamp on CHO cells stably expressing hERG

Sequence of human ether-à-go-go-related gene (hERG) potassium channel (Q12809 whole entry, looked up): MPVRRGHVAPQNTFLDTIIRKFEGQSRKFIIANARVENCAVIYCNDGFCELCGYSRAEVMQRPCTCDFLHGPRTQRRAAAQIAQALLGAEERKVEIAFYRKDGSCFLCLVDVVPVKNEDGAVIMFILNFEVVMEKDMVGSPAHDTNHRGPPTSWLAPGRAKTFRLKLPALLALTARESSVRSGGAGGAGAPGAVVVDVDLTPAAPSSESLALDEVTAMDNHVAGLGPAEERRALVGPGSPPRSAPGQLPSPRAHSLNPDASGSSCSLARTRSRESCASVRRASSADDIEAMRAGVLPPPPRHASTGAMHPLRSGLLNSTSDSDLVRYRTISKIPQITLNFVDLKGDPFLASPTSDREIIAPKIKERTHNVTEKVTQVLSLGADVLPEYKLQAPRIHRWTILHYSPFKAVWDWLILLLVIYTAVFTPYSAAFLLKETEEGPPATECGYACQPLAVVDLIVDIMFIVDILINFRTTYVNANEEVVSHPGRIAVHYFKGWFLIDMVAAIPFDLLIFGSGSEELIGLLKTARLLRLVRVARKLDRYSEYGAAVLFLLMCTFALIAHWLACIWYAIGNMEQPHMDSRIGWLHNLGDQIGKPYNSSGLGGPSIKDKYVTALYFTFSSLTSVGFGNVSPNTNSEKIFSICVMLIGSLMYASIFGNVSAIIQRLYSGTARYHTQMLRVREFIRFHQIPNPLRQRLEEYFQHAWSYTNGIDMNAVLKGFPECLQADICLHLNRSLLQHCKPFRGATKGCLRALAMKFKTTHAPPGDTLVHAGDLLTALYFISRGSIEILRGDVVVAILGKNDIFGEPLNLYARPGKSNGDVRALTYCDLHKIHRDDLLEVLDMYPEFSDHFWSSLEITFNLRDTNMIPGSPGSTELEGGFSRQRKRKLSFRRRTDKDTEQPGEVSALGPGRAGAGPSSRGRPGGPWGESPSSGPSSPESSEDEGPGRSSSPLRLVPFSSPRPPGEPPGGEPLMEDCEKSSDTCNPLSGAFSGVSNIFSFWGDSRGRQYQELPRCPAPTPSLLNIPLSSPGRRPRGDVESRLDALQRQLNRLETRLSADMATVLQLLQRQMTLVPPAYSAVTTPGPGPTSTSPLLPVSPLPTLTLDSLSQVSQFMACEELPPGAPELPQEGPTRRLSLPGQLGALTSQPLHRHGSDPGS

Going from `O=C(OC(C(=O)Nc1cccc(C(F)(F)F)c1)c1ccccc1)C1CCCCC1` (stereo not shown) to `COc1ccccc1NC(=O)N1CCCC1C(=O)NCCc1ccccc1` (stereo not shown), the “hERG current change (%, negative = inhibition) at 1uM” value rises from 12.2% to 15.6%.

First: O=C(NCc1ccccc1)c1ccc(OC2CSC2)cc1
Second: CC(C)N(Cc1ccccc1)C(=O)c1ccc2nsnc2c1
The “hERG current change (%, negative = inhibition) at 1uM” value of the first is higher: 18% for the first, 12.8% for the second.

First: CCOc1ccc(NC(=O)CCn2c(=O)[nH]c3ccsc3c2=O)cc1
Second: CCOc1cccc(N2C(=O)CC(=O)NC2=O)c1
The “hERG current change (%, negative = inhibition) at 1uM” value of the first is higher: 15.8% for the first, 5.45% for the second.

Compared with `CCC1(CC)Cc2ccccc2C(Nc2c(C)n(C)n(-c3ccccc3)c2=O)=N1`, `CCOC(=O)/C(=C\c1ccccc1)C(=O)c1cc(C(C)=O)c(Nc2ccccc2)s1` is higher in “hERG current change (%, negative = inhibition) at 1uM” value: 0.931% for the first, 4.18% for the second.

Compared with `Cn1c(N)c(C(=O)COC(=O)C2(c3ccc(Cl)cc3)CCCC2)c(=O)n(C)c1=O`, `CCC(=O)c1ccc(N2CCN(C(=O)c3cc([N+](=O)[O-])ccc3F)CC2)c(F)c1` is lower in “hERG current change (%, negative = inhibition) at 1uM” value: 10.5% for the first, -4.67% for the second.

First: Cc1ccc2nc(NCc3ccccc3)c(C#N)cc2c1
Second: O=c1[nH]c2ccc([N+](=O)[O-])cc2nc1/C=C(\O)c1ccccc1
The “hERG current change (%, negative = inhibition) at 1uM” value of the first is lower: -1.55% for the first, 10.5% for the second.

Going from `COc1ccc(Cc2nnc(SC)[nH]c2=O)cc1OC` to `COc1ccc(C)cc1Cn1nnc2ccccc21`, the “hERG current change (%, negative = inhibition) at 1uM” value rises from 7.11% to 9.02%.

First: CCOC(=O)c1cc(S(=O)(=O)NC2CCN(C(=O)OCC)CC2)cn1C
Second: Cn1c(CCNC(=O)c2ccco2)nc2cc(NC(=O)NC3CCCCC3)ccc21
The “hERG current change (%, negative = inhibition) at 1uM” value of the first is lower: -4% for the first, 1.45% for the second.

Going from `CCCNC(=O)NC(=O)CSc1cccc(C(F)(F)F)c1` to `CCN(CC)S(=O)(=O)c1ccc2c(c1)N(CC(=O)NCc1ccccn1)C(=O)CO2`, the “hERG current change (%, negative = inhibition) at 1uM” value falls from 14.7% to 5.12%.

Compared with `COc1ccc(-n2nc(C(=O)NCC(=O)N3CCN(c4ccccn4)CC3)c3ccccc3c2=O)cc1Cl`, `O=C(O)CSc1nnc(-c2ccccc2)c(-c2ccccc2)n1` is higher in “hERG current change (%, negative = inhibition) at 1uM” value: 14.4% for the first, 15% for the second.

Going from `Cc1ccc(NC(=S)/N=C(\N)Nc2nc(C)c3cc(C)c(C)cc3n2)cc1C` to `Cc1cc(Nc2ccc(F)cc2Cl)n2nc(C)nc2n1`, the “hERG current change (%, negative = inhibition) at 1uM” value falls from 8.63% to 6.43%.

Going from `Cc1c(C(=O)c2ccc(F)cc2F)c2ccccn2c1CCC#N` to `Cc1ccc2nc(C(Cl)(Cl)Cl)nc(N/N=C/c3ccncc3)c2c1`, the “hERG current change (%, negative = inhibition) at 1uM” value rises from 4.15% to 14.7%.

`COc1ccc(OC)c(C2=NOC(C(=O)NCC3CCCO3)C2)c1` (stereo not shown) was tested, and the “hERG current change (%, negative = inhibition) at 1uM” value was -2.41%.
